{"source": "the supplement of paper PMC11417369", "note": "± gives the standard deviation of the averaged measurements. This is one part of the list.", "data": [{"test_system": "PfAP2-G AP2 domain (GST-tagged)", "assay": "gcPBM binding intensity (ln(normalized median fluorescence intensity)); higher = stronger DNA binding", "summary_of_the_method": "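Plasmodium falciparum DNA-binding domains carrying a GST tag were expressed in E. coli and applied for 1 h, at about 25 μg on average, to an Agilent 4 × 180k array. The array held primer-extended double-stranded 36-bp intergenic genomic probes together with negative controls, and binding took place in 1× PBS with 1% milk, 0.2 mg/ml BSA, 0.5% salmon testes DNA and 0.03% Triton X-100. An Alexa488 anti-GST antibody detected bound protein, and the array was scanned at 488 nm. Binding intensity is taken as the highest Masliner-normalised natural-log median intensity across replicate spots of either probe orientation.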", "values": [{"sequence": "ATTTTTGTACACTTCTTTTTTTTTTTTCTTTTATGT [CACACA_negctrl_site1323]", "gcPBM binding intensity (ln)": "11.4 ± 0.68"}, {"sequence": "TAATGTTGAGAATTTTGTACATATAGATCAATTTAT [XGTACX_site5426]", "gcPBM binding intensity (ln)": "10.8 ± 0.51"}, {"sequence": "ATTGTTATTTATTGTGTGCGCATTAATACATACATA [GTGCAC_site9982]", "gcPBM binding intensity (ln)": "10.6 ± 0.36"}, {"sequence": "TAACTTTGAAAAGATGGTACACAATAATATATATAT [XGTACX_site8667]", "gcPBM binding intensity (ln)": "11.1 ± 0.48"}, {"sequence": "ATTTATTATGAACATACACACAAAAAAAAAAAGTAT [CACACA_site2054]", "gcPBM binding intensity (ln)": "10.3 ± 0.22"}, {"sequence": "GTATATTTTAATATGACACACATATTATATATATAT [CACACA_site2483]", "gcPBM binding intensity (ln)": "10.1 ± 0.35"}, {"sequence": "TGTATCCATATTTGTTCACACACACCCATATTTATA [CACACA_site9190]", "gcPBM binding intensity (ln)": "10.2 ± 0.16"}, {"sequence": "ATAATATGTATGGTCACACAGACAAGGAAAGAATAA [CACACA_site5164]", "gcPBM binding intensity (ln)": "10.9 ± 0.57"}, {"sequence": "AATCAATTAATATTAGCATAAAATTTTATTATTTTG [XGTACX_negctrl_site479]", "gcPBM binding intensity (ln)": "9.69 ± 0.17"}, {"sequence": "TGACATAAAAAATATACACACTATAATATATATACT [CACACA_site4898]", "gcPBM binding intensity (ln)": "9.89 ± 0.071"}, {"sequence": "TCGTGTGAAAATATTACACACATTTACTATAGTATC [CACACA_site7590]", "gcPBM binding intensity (ln)": "9.93 ± 0.057"}, {"sequence": "ATAAAAATTGAAACATGTACACATATTCATTTTATA [XGTACX_site7968]", "gcPBM binding intensity (ln)": "11.4 ± 0.88"}, {"sequence": "ATATATTTTTACCATACACACATATAATAAATATAT [CACACA_site3722]", "gcPBM binding intensity (ln)": "10.3 ± 0.13"}, {"sequence": "AAAAAATAATAATAATGTACAAATAAAATAAAAACA [XGTACX_site6568]", "gcPBM binding intensity (ln)": "10.8 ± 0.37"}, {"sequence": "AAGGAATATGTATATACACACAGGTACATATATATA [CACACA_site441]", "gcPBM binding intensity (ln)": "11.1 ± 0.74"}, {"sequence": "AAAAAAAAAAAAAAATGTACATATATATATATATAT [XGTACX_site876]", "gcPBM binding intensity (ln)": "11 ± 0.64"}, {"sequence": "ATAATAATATTGTGTACACAATAATTTGTCAAATCA [CACACA_site6019]", "gcPBM binding intensity (ln)": "11.7 ± 0.86"}, {"sequence": "ACATATACAAGACACACACACAACGTTTTAATAAAT [CACACA_site7017]", "gcPBM binding intensity (ln)": "10.2 ± 0.21"}, {"sequence": "AATGGAAAAAAAAAAATAAATACAAATAAATACAAA [GTGCAC_negctrl_site407]", "gcPBM binding intensity (ln)": "9.73 ± 0.13"}, {"sequence": "TATTTTTTTCTTACTACACACATATATATGCTTTCC [CACACA_site4058]", "gcPBM binding intensity (ln)": "10.08 ± 0.057"}, {"sequence": "TTATATTATACATACACACCCATATAACATGTTTTT [CACACA_site6539]", "gcPBM binding intensity (ln)": "10.08 ± 0.057"}, {"sequence": "TCATTAATATTTCATAGTACAATTTTGTCTAATTGT [XGTACX_site6720]", "gcPBM binding intensity (ln)": "10.6 ± 0.41"}, {"sequence": "AAAAAAAAAAAAAGTAGTACATAATATGTTCCTCCT [XGTACX_site8356]", "gcPBM binding intensity (ln)": "11.6 ± 1"}, {"sequence": "TTTTGTTATGAGAGGGTGCTAATATTTGGATATAAA", "gcPBM binding intensity (ln)": "9.99 ± 0.22"}, {"sequence": "AAAAAAAGAAAAATTGCACACACTTATAAAAATATA [CACACA_site4014]", "gcPBM binding intensity (ln)": "9.995 ± 0.078"}]}]}
